Results published in ChEMBL document CHEMBL1201862, “PubChem BioAssay data set” (2004).
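Dose response: 5 concentrations. Exposure: 48 h. Format: 96-well plates. Endpoint: linear interpolation; highest concentration if not reached. GI50: concentration for 50% inhibition of growth.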 The source made the active and inactive calls. Rule as the data show it: active = GI50 up to about 1.1 µM and inactive = higher. Peptide text beside a SMILES is read from it. * marks the point of attachment. Cbz = O=C(OCc1ccccc1)*

test system: NCI-H322M; assay: DTP human tumour cell line panel, 48 h

Question: For `NC(Cc1nnn[nH]1)C(=O)O` (stereo not drawn), which GI50 is on record?
Answer: Its GI50 is inactive: > 100 µM.

Question: How did the GI50 turn out when `NC1=NS(=O)(=O)Nc2nc(-c3ccccc3)c(-c3ccccc3)nc21` was run?
Answer: Its GI50 is inactive: > 100 µM.

Question: For `C=C(CN(C)C)C1(c2ccccc2)CC2(CCCC2)C(=O)O1` (stereo not drawn), which GI50 is on record?
Answer: Its GI50 is inactive: > 100 µM.

Question: Which GI50 does the source give for `COC(=O)C1(Cc2ccccc2)Cc2cc3c(cc2C1=O)CCC3` (stereo not drawn) here?
Answer: The GI50 was inactive: 2.35 µM.

Question: Which GI50 does the source give for `O=C(c1cc(Cl)cc(Cl)c1)N(Cc1cccnc1)C(=S)N(Cc1cccnc1)C(=O)c1cc(Cl)cc(Cl)c1` here?
Answer: The GI50 was inactive: 34.3 µM.

Question: Which GI50 does the source give for `CC(C)(C)C(=O)C(CC(=O)c1ccccc1)C(=O)C(C)(C)C` here?
Answer: The GI50 was inactive: > 100 µM.

Question: With `COc1cc2c(cc1OC)C(N(C)C)C(c1ccccc1)=C2Cl` (stereo not drawn) as the compound, how does the GI50 read?
Answer: The GI50 was inactive: 26.1 µM.

Question: How did the GI50 turn out when `O=C1NC(c2c(Cl)cccc2Cl)Nc2ccccc21` (stereo not drawn) was run?
Answer: Its GI50 is inactive: 56.2 µM.

Question: With `CCOC(=O)CCC(C(=O)OCC)n1nnc2ccc(Nc3c(C)[n+]([O-])c4cc(Cl)ccc4[n+]3[O-])cc21` (stereo not drawn) as the compound, how does the GI50 read?
Answer: The GI50 was inactive: 37.8 µM.

Question: For `CC1OC(OC2C(O[C@H]3CC[C@@]4(C)C(=CC[C@H]5[C@@H]6C[C@@H]7O[C@]8(CC[C@@H](C)CO8)[C@@H](C)[C@@H]7[C@@]6(C)CC[C@@H]54)C3)OC(CO)C(O)C2OC2OC(CO)C(O)C(O)C2O)C(O)C(O)C1O` (stereo partly drawn), which GI50 is on record?
Answer: The GI50 was inactive: 1.74 µM.

Question: `O=c1[nH]c2ccc(Cl)cc2o1` was tested. Which GI50 did it give?
Answer: Its GI50 is inactive: > 100 µM.

Question: How did the GI50 turn out when `O=C(/C=C/c1ccccc1)c1ccc(Cl)cc1Cl` was run?
Answer: The GI50 was inactive: 34.9 µM.

Question: Which GI50 does the source give for `Cc1ccc(OC2CC(n3cnc4c(=O)[nH]c(Br)nc43)OC2Oc2ccc(C)cc2)cc1` (stereo not drawn) here?
Answer: Its GI50 is inactive: 20.8 µM.

Question: How did the GI50 turn out when `Clc1ccc2c(NCCNC3CCCCC3)ccnc2c1` was run?
Answer: Its GI50 is inactive: 10.8 µM.

Question: Which GI50 does the source give for `CCN(CC)CCCC(C)Nc1c(Sc2cnc3cc(Cl)ccc3c2NC(C)CCCN(CC)CC)cnc2cc(Cl)ccc12` (stereo not drawn) here?
Answer: Its GI50 is inactive: 2.35 µM.

Question: Which GI50 does the source give for `O=c1[nH]nc(Cc2ccccc2)n1N=C1CCCCC1` here?
Answer: The GI50 was inactive: > 100 µM.

Question: How did the GI50 turn out when `Fc1ccccc1C1CC(c2ccc3ccccc3c2)=Nc2ccccc2S1` (stereo not drawn) was run?
Answer: Its GI50 is inactive: > 100 µM.

Question: Which GI50 does the source give for `COc1ccc(-c2cc(-c3cc(OC)c(OC)c(OC)c3)cc(-c3cc4ccccc4oc3=O)n2)cc1` here?
Answer: Its GI50 is inactive: 10.7 µM.

Question: `CC(C)(C)c1cc(C(O)(C(=O)O)C(=O)O)cc(C(C)(C)C)c1O` was tested. Which GI50 did it give?
Answer: Its GI50 is inactive: > 100 µM.

Question: With `COc1cccc2c1C(=O)c1c(O)c3c(c(O)c1C2=O)C[C@@](O)(C(=O)CO)CC3OC1CC(NCCOCC(OC(C)=O)OC(C)=O)C(O)C(C)O1` (stereo partly drawn) as the compound, how does the GI50 read?
Answer: The GI50 was active: < 0.01 µM.

Question: `C[C@@H]1CC[C@@]2(C)C(C(=O)O)=CCCC2[C@@]1(C)CC(=O)c1ccoc1` (stereo partly drawn) was tested. Which GI50 did it give?
Answer: The GI50 was inactive: > 25 µM.

Question: `O=C(Cc1ccccc1)N/N=C(/CCN1CCCC1)CC(c1ccccc1)c1c(O)c2ccccc2oc1=O` (stereo not drawn) was tested. Which GI50 did it give?
Answer: The GI50 was inactive: > 100 µM.

Question: For `O=C1Nc2cc([N+](=O)[O-])c(Br)cc2C1=O`, which GI50 is on record?
Answer: The GI50 was inactive: 57.5 µM.

Question: With `CCOP(=O)(OCC)C(Cc1ccccc1)N=C(c1ccccc1)c1ccccc1` (stereo not drawn) as the compound, how does the GI50 read?
Answer: Its GI50 is inactive: 14.5 µM.

Question: With `COC(=O)C1CC2CC(=NNC(N)=O)CC2C1` (stereo not drawn) as the compound, how does the GI50 read?
Answer: The GI50 was inactive: > 100 µM.

Question: Which GI50 does the source give for `CC(=O)Oc1ccc(/C=C/C(=O)NCC(NC(=O)/C=C/c2ccc(OC(C)=O)c(OC(C)=O)c2)C(=O)O)cc1OC(C)=O` (stereo not drawn) here?
Answer: The GI50 was inactive: > 100 µM.

Question: For `O=C1c2ccccc2C(=O)c2c(NCCCN3CCOCC3)ccc(NCCCN3CCOCC3)c21`, which GI50 is on record?
Answer: The GI50 was inactive: 3.72 µM.

Question: How did the GI50 turn out when `C(=N\OCc1ccccc1)/c1ncccc1C1OCCO1` was run?
Answer: Its GI50 is inactive: > 100 µM.

Question: Which GI50 does the source give for `Cc1nc2cc(Nc3ccccc3C(=O)O)ccc2s1` here?
Answer: Its GI50 is inactive: > 100 µM.

Question: For `C[C@H]1[C@H]2[C@H]3CC[C@@H]4[C@@]5(C)CC[C@H](O)C(C)(C)[C@@H]5CC[C@@]4(C)[C@]3(C)C[C@H](O)[C@@]2(C)C[C@H]2O[C@]21C`, which GI50 is on record?
Answer: Its GI50 is inactive: 21.9 µM.

Question: `CCCCCCC(=O)OC[n+]1ccc2c(C)c3[nH]c4ccc(OC)cc4c3c(C)c2c1` was tested. Which GI50 did it give?
Answer: Its GI50 is active: 0.193 µM.

Question: With `O=P1(NCCCl)OCCC(OO)N1CCCl` (stereo not drawn) as the compound, how does the GI50 read?
Answer: Its GI50 is inactive: 62.1 µM.

Question: How did the GI50 turn out when `CCOC(=O)C1S(=O)(=O)OCCOS1(=O)=O` was run?
Answer: The GI50 was inactive: > 100 µM.

Question: How did the GI50 turn out when `[O-][S+]1SC(=S)C2C=CC=NC21` (stereo not drawn) was run?
Answer: Its GI50 is inactive: 27.6 µM.

Question: How did the GI50 turn out when `CC[C@@H](C(=O)[C@@H](C)[C@@H](O)[C@H](C)CCc1ccc(C)c(O)c1C(=O)O)[C@H]1O[C@](CC)([C@H]2CC[C@](O)(CC)[C@H](C)O2)C[C@@H]1C` [LASALOCID A SODIUM] was run?
Answer: The GI50 was inactive: 2.19 µM.

Question: For `CC1=NN(C(=O)CC(=O)Nc2ccccc2)C(=O)C1/N=N/c1ccc(S(N)(=O)=O)cc1` (stereo not drawn), which GI50 is on record?
Answer: The GI50 was inactive: > 100 µM.

Question: `O=C1c2ccccc2-c2nnc3c(c21)-c1ccccc1C3` was tested. Which GI50 did it give?
Answer: The GI50 was inactive: > 100 µM.

Question: How did the GI50 turn out when `CCC1=C(c2ccc(OC)cc2)CC[C@]2(CCNC2=O)[C@@H]1C` was run?
Answer: The GI50 was inactive: 82.2 µM.

Question: `CN(C)c1ccc2nc(CC(O)(C(F)(F)F)C(F)(F)F)ccc2c1` was tested. Which GI50 did it give?
Answer: The GI50 was inactive: > 10 µM.

Question: How did the GI50 turn out when `COC(=O)C(COC(=O)/C=C/c1ccc(OC(C)=O)c(OC(C)=O)c1)NC(=O)/C=C/c1ccc(OC(C)=O)c(OC(C)=O)c1` (stereo not drawn) was run?
Answer: Its GI50 is inactive: 24.8 µM.

Question: Which GI50 does the source give for `CCOC(=O)c1c(/C=N\Nc2ccccc2)nc2ccccc2c1-c1ccccc1` here?
Answer: The GI50 was inactive: > 100 µM.

Question: For `CCN(CC)CCSc1nc(-c2c[nH]c3nc(C)ccc3c2=O)n[nH]1`, which GI50 is on record?
Answer: Its GI50 is inactive: > 100 µM.

Question: With `N#CC(C(=O)/C(=N\NC(N)=O)C(C#N)c1ccccc1)c1ccccc1` (stereo not drawn) as the compound, how does the GI50 read?
Answer: The GI50 was inactive: > 100 µM.

Question: How did the GI50 turn out when `Cc1ccc2nc(NC(=O)/C(=N\NC(=S)NN)C3C(=O)NC(=S)NC3=O)sc2c1` was run?
Answer: Its GI50 is inactive: > 100 µM.

Question: For `N#CC(C#N)=C/C=C(\Sc1c(Cl)c(Cl)nc(Cl)c1Cl)c1ccc(Cl)cc1`, which GI50 is on record?
Answer: Its GI50 is inactive: 20.8 µM.

Question: Which GI50 does the source give for `Cc1c(C)c2ccc(OC(C)C(=O)O)cc2oc1=O` (stereo not drawn) here?
Answer: Its GI50 is inactive: > 100 µM.

Question: For `CCn1c(=O)c2c3ccc(O)cc3oc2c2ccc(O)cc21`, which GI50 is on record?
Answer: Its GI50 is inactive: 41.9 µM.

Question: How did the GI50 turn out when `NC1CC2C3CCC2C1C3=O` (stereo not drawn) was run?
Answer: The GI50 was inactive: > 100 µM.

Question: With `O=C(O)C1(CC(CCCN2CCCCC2)c2ccccc2)CCCC1` (stereo not drawn) as the compound, how does the GI50 read?
Answer: Its GI50 is inactive: > 100 µM.

Question: For `CS(=O)(=O)Nc1ccc(N2Cc3c[nH]c4ccc5nccc2c5c34)cc1`, which GI50 is on record?
Answer: The GI50 was inactive: 12.4 µM.

Question: How did the GI50 turn out when `O=C(O)/C=C/c1ccncc1` was run?
Answer: Its GI50 is inactive: > 100 µM.

Question: How did the GI50 turn out when `COc1cc(C2c3cc4c(cc3OC(NNC(N)=O)C2C)OCO4)cc(OC)c1O` (stereo not drawn) was run?
Answer: The GI50 was inactive: 5.22 µM.

Question: How did the GI50 turn out when `CN(C)c1cc[n+](-c2nc([N-]C(=O)C(F)(F)F)nc3c2ncn3C2CC(O)C(CO)O2)cc1` (stereo not drawn) was run?
Answer: Its GI50 is inactive: > 100 µM.

Question: `CCOC(=O)CCC(NC(=O)C(Cc1ccccc1)NC(=O)OCc1ccccc1)C(=O)OCC` (stereo not drawn) (Cbz-Phe-Glu(OEt)-OEt; configuration not given here) was tested. Which GI50 did it give?
Answer: Its GI50 is inactive: 17.5 µM.

Question: With `CC1C=C(NCC2(CO)CCC2)N=C(N)N1` (stereo not drawn) as the compound, how does the GI50 read?
Answer: Its GI50 is inactive: > 100 µM.

Question: With `C1=N\c2ccc(cc2)-c2ccc(cc2)/N=C\c2ccc(cc2)OCc2cccc(n2)COc2ccc/1cc2` as the compound, how does the GI50 read?
Answer: Its GI50 is inactive: > 100 µM.

Question: Which GI50 does the source give for `O=C1O[C@@H](c2ccc3c(c2)OCO3)C2C(=O)O[C@@H](c3ccc4c(c3)OCO4)C12` (stereo partly drawn) here?
Answer: The GI50 was inactive: > 100 µM.

Question: With `O=C(NCCNCCNC(=O)C(F)(F)F)C(F)(F)F` as the compound, how does the GI50 read?
Answer: The GI50 was inactive: > 100 µM.

Question: `CC1=CC(=O)C(=C(C)C)CC1` was tested. Which GI50 did it give?
Answer: Its GI50 is inactive: > 100 µM.

Question: Which GI50 does the source give for `COc1cc(CNc2ccc(C)cc2)cc(OC)c1OC` here?
Answer: Its GI50 is active: 0.507 µM.

Question: How did the GI50 turn out when `Nc1n[n+]([O-])c2ccccc2[n+]1[O-]` [TIRAPAZAMINE] was run?
Answer: The GI50 was inactive: > 100 µM.

Question: How did the GI50 turn out when `Cc1ccc(S(=O)(=O)N2CCC[C@@H]2C(=O)O[C@@H]2CCC3CC=CC32)cc1` (stereo partly drawn) was run?
Answer: The GI50 was inactive: 64.1 µM.

Question: Which GI50 does the source give for `O=C(c1ccc(Cl)cc1)C(O)c1ccc(Cl)cc1` (stereo not drawn) here?
Answer: Its GI50 is inactive: 43.1 µM.
